Results as given in the antibiotic and cytotoxicity screens of Wong et al. (2023).
The other results are listed elsewhere or left out.

Assays:
HSkMC = human skeletal muscle cells; test: cytotoxicity call (relative viability < 0.9); conditions: 10 µM
HepG2 = test: cytotoxicity call (relative viability < 0.9); conditions: 10 µM
S. aureus RN4220 = test: growth inhibition call (relative growth <= 0.2); conditions: 50 µM

Row | Compound | cytotoxicity call (HSkMC) | cytotoxicity call (HepG2) | growth inhibition call (S. aureus RN4220)
1 | C=CCOC(=O)[C@@H]1[C@H]2C(=O)O[C@H](c3ccccc3)[C@H](c3ccccc3)N2[C@H](c2ccc(OCCOC(=O)[C@H]3C[C@H]4C(=O)NCC(=O)N4[C@H]3c3ccc(O)cc3)cc2)[C@@]12C(=O)Nc1ccccc12 | inactive | inactive | inactive
2 | CN(C)C(=O)C[C@H]1CC[C@@H]2[C@H](COC[C@@H](O)CN2S(=O)(=O)c2ccccc2)O1 | inactive | inactive | inactive
3 | C[C@H]1O[C@@H](OC[C@H]2O[C@@H](Oc3c(-c4ccc(O)c(O)c4)oc4cc(O)cc(O)c4c3=O)[C@@H](O)[C@@H](O)[C@@H]2O)[C@@H](O)[C@@H](O)[C@@H]1O | inactive | inactive | inactive
4 | C[C@H](CO)N1C[C@H](C)[C@H](CN(C)Cc2ccc(Oc3ccccc3)cc2)Oc2c(NC(=O)Nc3ccc(F)cc3)cccc2C1=O | inactive | inactive | inactive
5 | Cc1noc(C)c1S(=O)(=O)Nc1ccc2c(c1)CC(=O)N([C@@H](C)CO)C[C@@H](C)[C@@H](CN(C)Cc1ccc3c(c1)OCO3)O2 | inactive | inactive | inactive
6 | CNCc1cnc(NC)nc1 | inactive | inactive | inactive
7 | COc1ccc(NC(=O)N2C[C@@H](O)COC[C@@H]3O[C@H](CC(=O)NC4Cc5ccccc5C4)CC[C@H]32)cc1 | inactive | inactive | inactive
8 | C[C@@H]1CN([C@H](C)CO)C(=O)c2cccc(NC(=O)c3ccc(-c4nccs4)cc3)c2O[C@H]1CN(C)Cc1ccc(Oc2ccccc2)cc1 | inactive | inactive | inactive
9 | COc1ccc(NC(=O)Nc2ccc3c(c2)C(=O)N([C@H](C)CO)C[C@@H](C)[C@@H](CN(C)S(=O)(=O)c2ccc(Cl)cc2)OCCCC[C@@H](C)O3)cc1 | inactive | inactive | inactive
10 | C[C@@H]1CN([C@H](C)CO)C(=O)Cc2cc(NC(=O)C3CC3)ccc2O[C@@H]1CN(C)C(=O)Nc1ccc(F)cc1 | inactive | inactive | inactive
11 | C[C@H](CO)N1C[C@H](C)[C@@H](CN(C)Cc2ccc(Cl)c(Cl)c2)Oc2c(NS(=O)(=O)c3ccccc3)cccc2C1=O | inactive | active | inactive
12 | C[C@@H]1CN([C@H](C)CO)C(=O)c2ccccc2-c2ccccc2CO[C@@H]1CN(C)Cc1cccc(C(F)(F)F)c1 | inactive | inactive | inactive
13 | CCCCCCCCCCCCCCCC(=O)OCC=C(C)C=CC=C(C)C=CC1=C(C)CCCC1(C)C | inactive | inactive | inactive
14 | C[C@H](CO)N1C[C@H](C)[C@@H](CN(C)C(=O)CCC(F)(F)F)OCCCC[C@H](C)Oc2ccc(NS(=O)(=O)c3cccs3)cc2C1=O | inactive | inactive | inactive
15 | C[C@H]1CN([C@@H](C)CO)C(=O)Cc2cc(NC(=O)Nc3ccc(C(F)(F)F)cc3)ccc2O[C@H]1CN(C)Cc1ccc(C(=O)O)cc1 | inactive | inactive | inactive
16 | Nc1ccccc1Nc1ccccc1 | inactive | inactive | inactive
17 | COc1ccc(CN(C)C[C@@H]2OCCCC[C@@H](C)Oc3ccc(NS(=O)(=O)c4ccc(Cl)cc4)cc3C(=O)N([C@@H](C)CO)C[C@H]2C)cc1 | inactive | inactive | inactive
18 | Cc1noc(C)c1S(=O)(=O)N(C)C[C@H]1OCc2cnnn2CCCC(=O)N([C@@H](C)CO)C[C@H]1C | inactive | inactive | inactive
19 | COc1ccc(S(=O)(=O)Nc2ccc3c(c2)C(=O)N([C@@H](C)CO)C[C@@H](C)[C@H](CN(C)CC2CCCCC2)OCCCC[C@H](C)O3)cc1 | inactive | inactive | inactive
20 | Cc1ccc(S(=O)(=O)Nc2ccc3c(c2)C(=O)N([C@H](C)CO)C[C@H](C)[C@H](CN(C)S(=O)(=O)c2cn(C)cn2)O3)cc1 | inactive | inactive | inactive
21 | COc1ccc(CNC(=S)NN)cc1 | inactive | inactive | inactive
22 | CCCN(C)C[C@H]1OCCCC[C@@H](C)Oc2ccc(NC(=O)Nc3ccc(OC)cc3)cc2C(=O)N([C@@H](C)CO)C[C@H]1C | inactive | inactive | inactive
23 | C[C@@H]1CN([C@H](C)CO)C(=O)c2cc(NC(=O)C3CC3)ccc2O[C@@H]1CN(C)Cc1ccc(C(=O)O)cc1 | inactive | inactive | inactive
24 | CC(C)NC(=O)Nc1ccc2c(c1)C(=O)N([C@H](C)CO)C[C@H](C)[C@@H](CN(C)S(=O)(=O)c1cn(C)cn1)O2 | inactive | inactive | inactive
